From the RNAGym collection of RNA variant scans (doi:10.1093/nar/gkz1192)
The source gives no read counts; variants with many changes may rest on few reads.

B1: CPEB3 Ribozyme (parent)
chain: UAACAGGGGGCCACAGCAGAAGCGUUCACGUCGCAGCCCCUGUCAGAUUCUGGUGAAUCUGCGAAUUCUGCUGUAUAUCUC

Variants of: B1
Assay: self-cleavage, relative activity (ratio to wild type); higher = more cleavage; in vitro, sequencing
How it was run: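 For each CPEB3 ribozyme variant, relative activity is its cleaved/total read fraction divided by the unmutated ribozyme's. Barcoded error-prone PCR libraries were transcribed by T7 RNA polymerase (5 hours, 37°C) and held in DNase I for 15 min before an EDTA stop, with cleavage occurring throughout. Template-switching reverse transcription and Illumina sequencing were used to read the RNAs. A 5-read minimum applied, and results are the mean of three batches.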

Row | Variant | self-cleavage
1 | C11A U31G U67A | 0.07
2 | C11A U41A A45G U60C C62A | 0.14
3 | C11A U41C A64G | 0.29
4 | C11A U48C A65G U66A | 0
5 | C11A U48C G63U U67A | 0.04
6 | C11A U48C U54C A57G | 0.22
7 | C11A U54C A56G U60C C71G | 0
8 | C11A U54C U80C | 0.14
9 | C11A U66C A75U | 0.06
10 | C11A U66C U74C | 0.47
11 | C11G A13C G30A | 0.36
12 | C11G A13G A15U G30A U41A A45U G52A | 0.05
13 | C11G A13G A20G A64G U76C | 0.07
14 | C11G A13U A21G U31C A35G A45C U51A | 0.04
15 | C11G A13U A28U A45G U72C | 0.61
16 | C11G A15C C32A | 0.19
17 | C11G A15G U31A U51A U58A U66C U69C | 0.17
18 | C11G A15G U60A | 0.22
19 | C11G A18G U43A U54C | 0.1
20 | C11G A18G U49C U58C U76A | 0.03
21 | C11G A18U C29U A57G | 0.07

Row | Variant | self-cleavage
22 | C11G A18U U25C A35C G70U | 0.11
23 | C11G A18U U41A | 0.09
24 | C11G A18U U60C U78C | 0.08
25 | C11G A20G A21G U49C A57G A75U | 0.04
26 | C11G A20G A28C C40U U67C | 0.18
27 | C11G A20G A35G U80C | 0.6
28 | C11G A20G A57G U60C U74C | 0.42
29 | C11G A20G C29U C40G U60A U66C U74C | 0.05
30 | C11G A20G U31C | 0.1
31 | C11G A20G U67C | 0.34
32 | C11G A20G U69A | 0.07
33 | C11G A20G U76A | 0.26
34 | C11G A20U A28U U43C U49C U58C | 0.14
35 | C11G A20U C34G U41C G55A | 0.05
36 | C11G A20U U31G U43C | 0.31
37 | C11G A20U U51C | 0.37
38 | C11G A21G U49C A57G U69C | 0.12
39 | C11G A21G U51A U69C G70C | 0.05
40 | C11G A28C U49C | 0.27
41 | C11G A28G A64U U76A | 0.13
42 | C11G A28U A35U A45U U49A U69C | 0.11

Row | Variant | self-cleavage
43 | C11G A28U A45C C62U A65G U72C | 0.06
44 | C11G A28U U41A U69A | 0.05
45 | C11G A28U U69C | 0.05
46 | C11G A35C U74A | 0.15
47 | C11G A45U U49C | 0.07
48 | C11G A56G U66A | 0.08
49 | C11G A56U U72C | 0.18
50 | C11G A57G U69C U76C A77U | 0.04
51 | C11G A65G U80A | 0.09
52 | C11G C12G U25C A57G U69A | 0.11
53 | C11G C14A A28G A47G G61A U72C U80A | 0.17
54 | C11G C14A G19A A20G C27A A28U C38U | 0.04
55 | C11G C17U A75G U78A | 0.13
56 | C11G C27U A45G U72A | 0.07
57 | C11G C29A U60A G63A | 0.05
58 | C11G C39G U41C | 0.57
59 | C11G C40A U51A A57G A65G U72A | 0.03
60 | C11G C44U A65G | 0.08
61 | C11G G19U C27U A35U A65G U69A | 0.05
62 | C11G G22A A45G A57G U60C U69C U72A | 0.02
63 | C11G G22C U43C U49C A64U U67C | 0.06

Row | Variant | self-cleavage
64 | C11G G24C U60C U67C U69C | 0.16
65 | C11G G24U U25C C38A U80C | 0.04
66 | C11G G30A U72G | 0.08
67 | C11G G33A A45G A65G U69C U74C | 0.05
68 | C11G G42A U69A | 0.18
69 | C11G U25A U26C A64C | 0.12
70 | C11G U25A U41A U69C A75U C81U | 0.04
71 | C11G U25C A47G A56C A57C A77U | 0.05
72 | C11G U25C G36U U49C A65G U67C A77U | 0.06
73 | C11G U25C U26A U43A G53U A64G | 0.06
74 | C11G U25C U31C | 0.1
75 | C11G U25C U41A A45U A65G U72A U78C | 0.02
76 | C11G U26A C27U U31C U58C | 0.04
77 | C11G U26A C40U | 0.11
78 | C11G U26C G55U | 0.08
79 | C11G U26C U49C | 0.07
80 | C11G U31A A35G U66A U69C | 0.06
81 | C11G U31C A35U A65G U78A | 0.04
82 | C11G U31C U51A A56U | 0.09
83 | C11G U31C U54A A77U | 0.18
84 | C11G U41A U49C U67C U80C | 0.14
